Reference: the supplement of paper PMC4996465
Viability of KB3-1 and Nalm-6 cells after 48 h of drug alone (CellTiter-Glo), 11 doses over about 4.5 log units. % of DMSO wells, lower = more cell loss; AC50 from the fitted curve, lower = more potent. No active / inactive call. Nalm-6 was screened in two runs. AC50 is listed only for well-fitted inhibitory curves. KB3-1 is a HeLa-derived carcinoma line, Nalm-6 a B-cell precursor leukaemia line.

Tests used:
KB3-1 [1] = assay: viability (% of DMSO control); higher = more viable cells
Description: (§1)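 Eleven-dose screen of the NCATS MIPE 3 library on cells without co-treatment; CellTiter-Glo after 48 h, as % of DMSO wells.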

Nalm-6 [2] = assay: as above
Description: as §1

KB3-1 [3] = assay: log AC50 of viability decrease (48 h) (log10 M); higher = less potent
Description: (§2)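 Eleven-dose screen of the NCATS MIPE 3 library on cells without co-treatment; CellTiter-Glo after 48 h. AC50 from the curve fit; only inhibitory curves of the better fit classes are listed.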

Nalm-6 [4] = assay: as above
Description: as §2

| Compound | viability (KB3-1 [1]; 0.00078 µM) [%] | viability (KB3-1 [1]; 0.00234 µM) [%] | viability (KB3-1 [1]; 0.00702 µM) [%] | viability (KB3-1 [1]; 0.0211 µM) [%] | viability (KB3-1 [1]; 0.0632 µM) [%] | viability (KB3-1 [1]; 0.19 µM) [%] | viability (KB3-1 [1]; 0.569 µM) [%] | viability (KB3-1 [1]; 1.71 µM) [%] | viability (KB3-1 [1]; 5.12 µM) [%] | viability (KB3-1 [1]; 15.4 µM) [%] | viability (KB3-1 [1]; 46.1 µM) [%] | viability (Nalm-6 [2]; run: 1, 0.00078 µM) [%] | viability (Nalm-6 [2]; run: 1, 0.00234 µM) [%] | viability (Nalm-6 [2]; run: 1, 0.00702 µM) [%] | viability (Nalm-6 [2]; run: 1, 0.0211 µM) [%] | viability (Nalm-6 [2]; run: 1, 0.0632 µM) [%] | viability (Nalm-6 [2]; run: 1, 0.19 µM) [%] | viability (Nalm-6 [2]; run: 1, 0.569 µM) [%] | viability (Nalm-6 [2]; run: 1, 1.71 µM) [%] | viability (Nalm-6 [2]; run: 1, 5.12 µM) [%] | viability (Nalm-6 [2]; run: 1, 15.4 µM) [%] | viability (Nalm-6 [2]; run: 1, 46.1 µM) [%] | viability (Nalm-6 [2]; run: 2, 0.00078 µM) [%] | viability (Nalm-6 [2]; run: 2, 0.00234 µM) [%] | viability (Nalm-6 [2]; run: 2, 0.00702 µM) [%] | viability (Nalm-6 [2]; run: 2, 0.0211 µM) [%] | viability (Nalm-6 [2]; run: 2, 0.0632 µM) [%] | viability (Nalm-6 [2]; run: 2, 0.19 µM) [%] | viability (Nalm-6 [2]; run: 2, 0.569 µM) [%] | viability (Nalm-6 [2]; run: 2, 1.71 µM) [%] | viability (Nalm-6 [2]; run: 2, 5.12 µM) [%] | viability (Nalm-6 [2]; run: 2, 15.4 µM) [%] | viability (Nalm-6 [2]; run: 2, 46.1 µM) [%] | log AC50 of viability decrease (KB3-1 [3]) | log AC50 of viability decrease (Nalm-6 [4]; run: 1) | log AC50 of viability decrease (Nalm-6 [4]; run: 2) |
| --- | --- | --- | --- | --- | --- | --- | --- | --- | --- | --- | --- | --- | --- | --- | --- | --- | --- | --- | --- | --- | --- | --- | --- | --- | --- | --- | --- | --- | --- | --- | --- | --- | --- | --- | --- | --- |
| CC(C)c1ccc(Cn2ccc3c4c(N)nc(NC5CC5)nc4ccc32)cc1 | 102 | 103 | 106 | 102 | 108 | 105 | 89.4 | 26.3 | 38.5 | 5.44 | 1.17 | 112 | 116 | 120 | 114 | 117 | 114 | 113 | 95.7 | 36.9 | 3.77 | 0.406 | 111 | 105 | 111 | 107 | 101 | 114 | 101 | 90.1 | 24.6 | 2.91 | 1.33 | -6.03 | -5.43 | -5.48 |
| COc1cc2c(cc1O)CC[C@@H]1[C@@H]2CC[C@]2(C)[C@@H](O)CC[C@@H]12 [2-Methoxyestradiol] | 99.4 | 100 | 101 | 103 | 104 | 102 | 69 | 36.8 | 28.4 | 23.2 | 10.9 | 117 | 106 | 115 | 113 | 123 | 112 | 89.5 | 31.2 | 40.5 | 26.8 | 8.85 | 110 | 105 | 111 | 105 | 108 | 104 | 41 | 16.4 | 17.5 | 24.9 | 4.46 | -6.08 | -6.08 | -6.38 |
| NC/1=N/C(=O)N(/C=N1)[C@@H]2O[C@H](CO)[C@@H](O)[C@H]2O [5-Azacitidine] | 102 | 111 | 103 | 104 | 101 | 99.4 | 95.6 | 83.8 | 67.9 | 49.3 | 10.2 | 102 | 95.9 | 107 | 115 | 103 | 110 | 97.4 | 70.5 | 35.2 | 17.6 | 9.33 | 110 | 100 | 112 | 111 | 102 | 105 | 88.1 | 86 | 43.1 | 13.5 | 5.28 | -4.83 | -5.58 | -5.38 |
